Common to all, as to experiment: Primary Screen for Target Class Profiling of Small Molecule Inhibitors of Methyltransferases
Test [1] concerns the target Glycine N-methyltransferase (Homo sapiens) (UniProt Q14749). The settings on record: purified enzyme, MTase-Glo SAH luminescence; measured here: GNMT inhibition; at 40 µM; stronger effect = lower value. The procedure, abridged:
(§1)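 Each enzyme was reacted with SAM and its substrate, with compounds tested once at 40 uM; SAH formed was read by MTase-Glo luminescence.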

The target in test [2] is Guanidinoacetate N-methyltransferase (Homo sapiens) (UniProt Q14353). To be noted: purified enzyme, MTase-Glo SAH luminescence; measured here: GAMT inhibition; at 40 µM; stronger effect = lower value. The essentials:
as §1

For test [3], the target named is Histamine N-methyltransferase (Homo sapiens) (UniProt P50135). The settings on record: purified enzyme, MTase-Glo SAH luminescence; measured here: HNMT inhibition; at 40 µM; stronger effect = lower value. The procedure, abridged:
as §1

Test [4] has as its target Nicotinamide N-methyltransferase (Homo sapiens) (UniProt P40261). To be noted: purified enzyme, MTase-Glo SAH luminescence; measured here: NNMT inhibition; at 40 µM; stronger effect = lower value. The essentials: as §1
Test [5] has as its target Phenylethanolamine N-methyltransferase (Homo sapiens) (UniProt P11086). To be noted: purified enzyme, MTase-Glo SAH luminescence; measured here: PNMT inhibition; at 40 µM; stronger effect = lower value. The essentials:
as §1

Some of the results follow. Further columns of the screen follow, without active or inactive calls.
% is scaled to controls: 0 for no effect and ±100 for the full control effect.

In the case of `CCN(CC)CCCN1C(=O)c2cc3sccc3n2CC1(C)C(=O)NC1CCCCCC1` (stereo not drawn), the activity change, negative = inhibition in test [1] was -2.62%; in test [2], 3.82%; in test [3] it was -7.72%; in test [4] it was -0.077%; in test [5], -6.27%.
In the same order, the values of `Cc1ccc(-c2n[nH]n3c2nc(=O)c2ccc(C(=O)N4CCN(c5cc(C)ccc5C)CC4)cc23)cc1` are -23.5%, -1.68%, -8.06%, -21.8% and -5.25%.
The corresponding values for `CNC(=O)[C@@H]1CN(C(=O)CCc2cccc(OC)c2)C[C@H]1c1nc(C)no1` are -0.326%, -1.15%, 0.041%, -2.2% and 0.687%.
The corresponding values for `Cc1noc2ncnc(N3CCC4(CC3)CC(c3ccccc3)CN(C)C4)c12` (stereo not drawn) are -9.15%, -7.04%, -38.4%, -15.8% and -3.74%.
In the case of `CC1(c2cccnc2)N(CC2CC2)C(=O)OC12CCN(C(=O)c1cccc(O)c1)CC2` (stereo not drawn), the activity change, negative = inhibition in test [1] is -0.985%; in test [2], -1.82%; in test [3], 0.551%; in test [4], -7.41%; in test [5], -13.4%.
In the case of `O=C(CN1C(=O)C2(CCNCC2)Nc2ccccc21)NC1CCCCCC1`, the activity change, negative = inhibition in test [1] is -0.738%; in test [2], -1.03%; in test [3], -1.4%; in test [4], -4.38%; in test [5], -3.95%.
`Cc1ccc(C(=O)Cn2nc3n(C)c(=O)c4ccc(C(=O)NC5CCCCC5)cc4n3c2=O)cc1`: the activity change, negative = inhibition in test [1] is 3.15%; in test [2], 0%; in test [3], 9.49%; in test [4], 1.07%; in test [5], 2.15%.
In the case of `CN(CCc1ccccn1)C(=O)c1ccc2c(c1)[nH]c(=O)n2C1CCC(O)CC1` (stereo not drawn), the activity change, negative = inhibition in test [1] is -6.33%; in test [2], -10.9%; in test [3] it was -2.91%; in test [4] it was -16.4%; in test [5], -12.4%.
In the same order, the values of `CCC(C)C(=O)O[C@H]1[C@@H](O[C@H]2O[C@H](CO)[C@@H](O)[C@H](O)[C@H]2O)O[C@H](CO)[C@@H](O)[C@@H]1O` (stereo partly drawn) are 0%, 0.144%, 9.34%, -15.3% and -11.4%.
In the same order, the values of `CN(C)Cc1nnc(C2CC(NC(=O)c3nc4ccccc4[nH]3)C2)n1C` (stereo not drawn) are -5.67%, -11.7%, -4.67%, -7.89% and -7.19%.
For the compound `BrC1C(Br)C(Br)C(Br)C(Br)C1Br` (stereo not drawn), the activity change, negative = inhibition in test [2] was -11.1%; in test [4], -5.63%; in test [5], 7.51%.
`O=C(N1CCC(NS(=O)(=O)c2cccs2)CC1)N1CC2CC(C1)[C@H]1CCCC(=O)N1C2` (stereo partly drawn): the activity change, negative = inhibition in test [1] was 6.25%; in test [2], 3.51%; in test [3], 3.48%; in test [4] it was 3.98%; in test [5], -7.48%.
In the same order, the values of `O=C(N/N=C/c1ccc(O)c(O)c1)c1cc2ccccc2cc1O` are -14%, -14.3%, 8.13%, -19.4% and -2.99%.
In the same order, the values of `CCCn1c(=O)c2ccccc2n2c(SCC(=O)NCc3cccc(OC)c3)nnc12` are -3.13%, -0.232%, 0.741%, -11.9% and -2.88%.
Consider `O=C(CCC1CCCN(S(=O)(=O)c2ccc(F)cc2)C1)NCc1ccco1` (stereo not drawn), for which the activity change, negative = inhibition was found to be 11.4% in test [1]; 0% in test [2]; 10.7% in test [3]; 8.99% in test [4]; 6.39% in test [5].
The corresponding values for `C/C(=C\CCC(C(=O)O)C1CCC2(C)C3=C(CCC12C)C1(C)CCC(=O)C(C)(C)C1CC3)C(=O)O` (stereo not drawn) are 0%, 2.75%, 4.75%, -11.3% and 3.95%.
The corresponding values for `COc1ccc(-c2cc(C[C@@H]3CC[C@H](O)[C@@H](CNC4CCN(C(C)=O)CC4)O3)no2)cc1` are -4.65%, -3.13%, -1.14%, -5.37% and -1.25%.
The corresponding values for `COc1ccc(CNC(=O)CCc2nnc3n(CCCOC(C)C)c(=O)c4ccccc4n23)cc1` are -4.67%, -2.12%, 2.1%, -0.686% and -10.2%.
For the compound `CCOc1ccc(CCNC(=O)CCc2nnc3n(CCC(C)C)c(=O)c4ccccc4n23)cc1`, the activity change, negative = inhibition was -8.11% in test [1]; 3.22% in test [2]; -1.1% in test [3]; -13.9% in test [4]; -5.1% in test [5].
In the same order, the values of `CC1CCCC(NC(=O)C2(C)Cn3c(cc4occc43)C(=O)N2Cc2ccccc2Cl)C1C` (stereo not drawn) are -2.01%, 4.85%, -2.47%, -4.47% and -6.99%.
The corresponding values for `COc1ccccc1CCC(=O)N1CC(C(=O)N(C)C)C2(CCOCC2)C1` (stereo not drawn) are -1.63%, -4.75%, -0.745%, -6.22% and -1.56%.
For the compound `COc1ccc(CN2C(=O)c3cc4ccccc4n3CC2(C)C(=O)NCc2ccccc2)cc1OC` (stereo not drawn), the activity change, negative = inhibition in test [1] was -3.56%; in test [2], 2.16%; in test [3], -5.16%; in test [4], -52.1%; in test [5], -7.84%.
Consider `CN(Cc1ccccc1)C(=O)CN(C)S(=O)(=O)c1ccc2[nH]c3c(c2c1)CCCC3`, for which the activity change, negative = inhibition is -12.3% in test [1]; -0.202% in test [2]; -6.83% in test [3]; -5.62% in test [4]; -7.36% in test [5].
The corresponding values for `c1ccc(-c2nnn3c2nc(NCCc2c[nH]c4ccccc24)c2ccccc23)cc1` are -10.7%, 1.7%, -4.03%, -4.82% and -3.5%.
The corresponding values for `O[C@H]1CC[C@@H](Cc2cc(-c3ccccn3)on2)O[C@@H]1CN(Cc1ccccc1)Cc1ccccc1` are -2%, -0.427%, -0.11%, -2.43% and 0.346%.
The corresponding values for `Cc1ccc(Cl)cc1N1CCN(S(=O)(=O)c2cccc(-c3nc(-c4ccccc4)no3)c2)CC1` are 12.3%, 0%, 8.76%, 2.81% and 3.62%.
Take `C[C@]12CC[C@H](O)CC1=CCC1C2CC[C@]2(C)C(n3cnc4ccccc43)=CCC12` (stereo partly drawn): the activity change, negative = inhibition in test [1] is -9.44%; in test [2] it was -10.1%; in test [3] it was -3.36%; in test [4], -36.9%; in test [5], -16.5%.
`COCCCN1C(=O)c2nc3ccccc3n2CC1(C)C(=O)NC1CCCC1` (stereo not drawn): the activity change, negative = inhibition in test [1] is 3.77%; in test [2], 4.92%; in test [3] it was -1.42%; in test [4] it was 4.54%; in test [5], -3.07%.
`CC(C)Oc1ccc2c(NC(=O)c3ccc(=O)n(C)n3)nn(CC(F)(F)F)c2c1`: the activity change, negative = inhibition in test [1] is -2.08%; in test [2] it was -6.68%; in test [3], -1.87%; in test [4], -4.64%; in test [5], 1.68%.
The corresponding values for `O=C(N1CCCCC1)C1(c2ccc(Cl)cc2)CCOCC1` are -2.77%, -8.55%, -0.951%, -17.4% and -10.2%.

The record behind these values is PubChem BioAssay AID1745853 (National Center for Advancing Translational Sciences (NCATS), 2022).
